According to FireProtDB (doi:10.1002/bip.20645):
Several values for one entry are separate records, joined by “and”; a condition that tells them apart may be missing. Equal entries are not always repeated.

Details: Gallus gallus, Thermal, DSC, reversible: Yes; for unfolding free energy: 27 °C

For “Lysozyme C wild type (sequence left out)”, the unfolding free energy (pH 4, Acetate 50 mM) was 10.3 kcal/mol and 12.4 kcal/mol, the Tm (pH 4, Acetate 50 mM) was 77 °C and 80 °C and the “heat capacity change of unfolding” value (pH 4, Acetate 50 mM) was 1.55 kcal/mol/K and 1.7 kcal/mol/K. The “unfolding enthalpy (calorimetric)” value (pH 4, Acetate 50 mM) was 113 kcal/mol and 130 kcal/mol, the unfolding free energy (pH 4.5, Acetate 50 mM) was 9.99 kcal/mol and 11.8 kcal/mol and the Tm (pH 4.5, Acetate 50 mM) was 77 °C and 79.2 °C. For the same substance, the “unfolding enthalpy (calorimetric)” value (pH 4.5, Acetate 50 mM) was 111 kcal/mol and 127 kcal/mol, the unfolding free energy (pH 5, Acetate 50 mM) was 10 kcal/mol and 11.6 kcal/mol and the Tm (pH 5, Acetate 50 mM) was 76.5 °C and 78.8 °C. For the same substance, the “unfolding enthalpy (calorimetric)” value (pH 5, Acetate 50 mM) was 111 kcal/mol and 125 kcal/mol, the unfolding free energy (pH 5.5, Acetate 50 mM) was 9.58 kcal/mol and 11.8 kcal/mol and the Tm (pH 5.5, Acetate 50 mM) was 75.7 °C. The “unfolding enthalpy (calorimetric)” value (pH 5.5, Acetate 50 mM) was 108 kcal/mol, the unfolding free energy (pH 6.5, Phosphate 50 mM) was 9.32 kcal/mol and 11.2 kcal/mol and the Tm (pH 6.5, Phosphate 50 mM) was 74 °C and 76.7 °C. For the same substance, the “unfolding enthalpy (calorimetric)” value (pH 6.5, Phosphate 50 mM) was 107 kcal/mol and 123 kcal/mol, the unfolding free energy (pH 7, Phosphate 50 mM) was 9.01 kcal/mol and the Tm (pH 7, Phosphate 50 mM) was 73 °C. For the same substance, the “unfolding enthalpy (calorimetric)” value (pH 7, Phosphate 50 mM) was 105 kcal/mol and the unfolding free energy (pH 7.5, Phosphate 50 mM) was 10.7 kcal/mol.
